# Results taken from the supplement of paper PMC8728848.
# The list shows a part of the results.
# B1: Dectin-1 CTLD (Mus musculus), Q6QLQ4 (protein)
# chain: MKYHSHIENLDEDGYTQLDFSTQDIHKRPRGSEKGSRAPSSPWRPIAVGLGILCFVVVVVAAVLGALAFWRHNSGRNPEEKDNFLSRNKENHKPTESSLDEKVAPSKASQTTGGFSQSCLPNWIMHGKSCYLFSFSGNSWYGSKRHCSQLGAHLLKIDNSKEFEFIESQTSSHRINAFWIGLSRNQSEGPWFWEDGSAFFPNSFQVRNTVPQESLLHNCVWIHGSEVYNQICNTSSYSICEKEL
# Legend:
# Assay in all cases: glycan array binding signal (z-score within array); higher = stronger binding
# Details in all cases: glycan notation: IUPAC condensed, linker removed
# Fuc(a1-2)Gal = target: Fuc(a1-2)Gal
# Summary of the method: (§1)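 Arrays were curated from the Consortium for Functional Glycomics database, 3228 in total, and kept only where the protein sequence was available. Binding is expressed as a within-array Z-score. This score was averaged across arrays of the same protein sequence at different concentrations or buffers and across linkers, and negative values can be read as non-binding.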
# Fuc(a1-2)Gal(b1-3)GalNAc = target: Fuc(a1-2)Gal(b1-3)GalNAc
# Summary of the method: as §1
# [1] = target: Fuc(a1-2)Gal(b1-3)GalNAc(b1-3)Gal
# Summary of the method: as §1
# [2] = target: Fuc(a1-2)Gal(b1-3)GalNAc(b1-3)Gal(a1-4)Gal(b1-4)Glc
# Summary of the method: as §1
# [3] = target: Fuc(a1-2)Gal(b1-3)GalNAc(b1-3)Gal(b1-4)Glc
# Summary of the method: as §1
# [4] = target: Fuc(a1-2)Gal(b1-3)GalNAc(b1-4)[Neu5Ac(a2-3)]Gal(b1-4)Glc
# Summary of the method: as §1
# [5] = target: Fuc(a1-2)Gal(b1-3)[Fuc(a1-4)]GlcNAc
# Summary of the method: as §1
# Fuc(a1-2)Gal(b1-4)Glc = target: Fuc(a1-2)Gal(b1-4)Glc
# Summary of the method: as §1
# Fuc(a1-2)Gal(b1-4)GlcNAc = target: Fuc(a1-2)Gal(b1-4)GlcNAc
# Summary of the method: as §1
# [6] = target: Fuc(a1-2)Gal(b1-4)GlcNAc(b1-3)Gal(b1-4)GlcNAc
# Summary of the method: as §1
# [7] = target: Fuc(a1-2)Gal(b1-4)GlcNAc(b1-3)Gal(b1-4)GlcNAc(b1-3)Gal(b1-4)GlcNAc
# Summary of the method: as §1
# [8] = target: Fuc(a1-2)Gal(b1-4)[Fuc(a1-3)]GalNAc(b1-3)Gal(b1-4)[Fuc(a1-3)]GlcNAc
# Summary of the method: as §1
# [9] = target: Fuc(a1-2)Gal(b1-4)[Fuc(a1-3)]GalNAc(b1-3)Gal(b1-4)[Fuc(a1-3)]GlcNAc(b1-3)Gal(b1-4)[Fuc(a1-3)]GalNAc
# Summary of the method: as §1
# [10] = target: Fuc(a1-2)Gal(b1-4)[Fuc(a1-3)]GlcNAc
# Summary of the method: as §1
# Fuc(a1-2)GlcNAc = target: Fuc(a1-2)GlcNAc
# Summary of the method: as §1
# Fuc(a1-2)[Gal(a1-3)]Gal = target: Fuc(a1-2)[Gal(a1-3)]Gal
# Summary of the method: as §1
# [11] = target: Fuc(a1-2)[Gal(a1-3)]Gal(b1-3)GlcNAc
# Summary of the method: as §1
# [12] = target: Fuc(a1-2)[Gal(a1-3)]Gal(b1-4)Glc
# Summary of the method: as §1
# [13] = target: Fuc(a1-2)[Gal(a1-3)]Gal(b1-4)GlcNAc
# Summary of the method: as §1
# [14] = target: Fuc(a1-2)[Gal(a1-3)]Gal(b1-4)[Fuc(a1-3)]GlcNAc
# Summary of the method: as §1
# [15] = target: Fuc(a1-2)[Gal(a1-4)]Gal(b1-4)GalNAc
# Summary of the method: as §1
# [16] = target: Fuc(a1-2)[GalNAc(a1-3)]Gal
# Summary of the method: as §1
# [17] = target: Fuc(a1-2)[GalNAc(a1-3)]Gal(b1-3)GlcNAc
# Summary of the method: as §1
# [18] = target: Fuc(a1-2)[GalNAc(a1-3)]Gal(b1-4)Glc
# Summary of the method: as §1
# [19] = target: Fuc(a1-2)[GalNAc(a1-3)]Gal(b1-4)GlcNAc
# Summary of the method: as §1
# [20] = target: Fuc(a1-2)[GalNAc(a1-3)]Gal(b1-4)[Fuc(a1-3)]GlcNAc
# Summary of the method: as §1
# [21] = target: Fuc(a1-2)[GalNAc(a1-4)]Gal(b1-4)GlcNAc
# Summary of the method: as §1
# Fuc(a1-3)GlcNAc = target: Fuc(a1-3)GlcNAc
# Summary of the method: as §1
# [22] = target: Fuc(a1-3)[Gal(b1-4)]GlcNAc
# Summary of the method: as §1
# [23] = target: Fuc(a1-3)[Gal(b1-4)]GlcNAc(b1-4)Gal(b1-4)[Fuc(a1-3)]GlcNAc
# Summary of the method: as §1
# [24] = target: Fuc(a1-3)[Gal(b1-4)]GlcNAc(b1-4)Gal(b1-4)[Fuc(a1-3)]GlcNAc(b1-4)Gal(b1-4)[Fuc(a1-3)]GlcNAc
# Summary of the method: as §1
# [25] = target: Fuc(a1-3)[Gal3S(b1-4)]GlcNAc
# Summary of the method: as §1
# [26] = target: Fuc(a1-3)[GalNAc(b1-4)]Gal(b1-4)GlcNAc
# Summary of the method: as §1
# Fuc(a1-4)GlcNAc = target: Fuc(a1-4)GlcNAc
# Summary of the method: as §1
# Fuc(b1-3)GlcNAc = target: Fuc(b1-3)GlcNAc
# Summary of the method: as §1
# Gal(a1-2)Gal = target: Gal(a1-2)Gal
# Summary of the method: as §1
# Gal(a1-3)Gal = target: Gal(a1-3)Gal
# Summary of the method: as §1
# Gal(a1-3)Gal(b1-3)Glc = target: Gal(a1-3)Gal(b1-3)Glc
# Summary of the method: as §1
# Gal(a1-3)Gal(b1-3)GlcNAc = target: Gal(a1-3)Gal(b1-3)GlcNAc
# Summary of the method: as §1
# Gal(a1-3)Gal(b1-4)GlcNAc = target: Gal(a1-3)Gal(b1-4)GlcNAc
# Summary of the method: as §1
# [27] = target: Gal(a1-3)Gal(b1-4)[Fuc(a1-3)]GalNAc
# Summary of the method: as §1
# Gal(a1-3)GlcNAc = target: Gal(a1-3)GlcNAc
# Summary of the method: as §1
# [28] = target: Gal(a1-3)[Gal(a1-4)]Gal(b1-4)GlcNAc
# Summary of the method: as §1
# Gal(a1-4)Gal(b1-4)Gal = target: Gal(a1-4)Gal(b1-4)Gal
# Summary of the method: as §1
# Gal(a1-4)Gal(b1-4)GalNAc = target: Gal(a1-4)Gal(b1-4)GalNAc
# Summary of the method: as §1
# Gal(a1-4)GlcNAc = target: Gal(a1-4)GlcNAc
# Summary of the method: as §1
# Gal(a1-6)Glc = target: Gal(a1-6)Glc
# Summary of the method: as §1
# Gal(b1-2)Gal = target: Gal(b1-2)Gal
# Summary of the method: as §1
# Gal(b1-3)Gal = target: Gal(b1-3)Gal
# Summary of the method: as §1
# Gal(b1-3)GalNAc = target: Gal(b1-3)GalNAc
# Summary of the method: as §1
# [29] = target: Gal(b1-3)GalNAc(b1-3)Gal(a1-4)Gal(b1-4)Glc
# Summary of the method: as §1
# [30] = target: Gal(b1-3)GalNAc(b1-3)Gal(b1-4)Glc
# Summary of the method: as §1
# [31] = target: Gal(b1-3)GalNAc(b1-3)Gal(b1-4)GlcNAc
# Summary of the method: as §1
# [32] = target: Gal(b1-3)GalNAc(b1-4)Gal(b1-4)Glc
# Summary of the method: as §1
# [33] = target: Gal(b1-3)GalNAc(b1-4)[Neu5Ac(a2-3)]Gal(b1-4)Glc
# Summary of the method: as §1
# [34] = target: Gal(b1-3)[Fuc(a1-4)]GlcNAc
# Summary of the method: as §1
# [35] = target: Gal(b1-3)[Fuc(a1-4)]GlcNAc(b1-3)Gal(b1-4)GlcNAc
# Summary of the method: as §1
# [36] = target: Gal(b1-3)[Fuc(a1-4)]GlcNAc(b1-3)Gal(b1-4)[Fuc(a1-3)]GlcNAc
# Summary of the method: as §1
# [37] = target: Gal(b1-3)[GlcNAc(b1-6)]GalNAc
# Summary of the method: as §1
# [38] = target: Gal(b1-3)[GlcNAc(b1-6)]GlcNAc
# Summary of the method: as §1
binder,measurement,setting,value
B1,glycan array binding signal (z-score),Fuc(a1-2)Gal,-0.355
same,glycan array binding signal (z-score),Fuc(a1-2)Gal(b1-3)GalNAc,-0.228
same,glycan array binding signal (z-score),[1],-0.117
same,glycan array binding signal (z-score),[2],-0.475
same,glycan array binding signal (z-score),[3],-0.155
same,glycan array binding signal (z-score),[4],-0.029
same,glycan array binding signal (z-score),[5],0.129
same,glycan array binding signal (z-score),Fuc(a1-2)Gal(b1-4)Glc,-0.41
same,glycan array binding signal (z-score),Fuc(a1-2)Gal(b1-4)GlcNAc,-0.083
same,glycan array binding signal (z-score),[6],-0.342
same,glycan array binding signal (z-score),[7],-0.18
same,glycan array binding signal (z-score),[8],-0.438
same,glycan array binding signal (z-score),[9],-0.367
same,glycan array binding signal (z-score),[10],-0.473
same,glycan array binding signal (z-score),Fuc(a1-2)GlcNAc,-0.205
same,glycan array binding signal (z-score),Fuc(a1-2)[Gal(a1-3)]Gal,-0.364
same,glycan array binding signal (z-score),[11],-0.245
same,glycan array binding signal (z-score),[12],-0.581
same,glycan array binding signal (z-score),[13],0.031
same,glycan array binding signal (z-score),[14],-0.028
same,glycan array binding signal (z-score),[15],-0.201
same,glycan array binding signal (z-score),[16],-0.311
same,glycan array binding signal (z-score),[17],-0.341
same,glycan array binding signal (z-score),[18],-0.46
same,glycan array binding signal (z-score),[19],-0.431
same,glycan array binding signal (z-score),[20],-0.372
same,glycan array binding signal (z-score),[21],-0.297
same,glycan array binding signal (z-score),Fuc(a1-3)GlcNAc,-0.307
same,glycan array binding signal (z-score),[22],-0.312
same,glycan array binding signal (z-score),[23],-0.055
same,glycan array binding signal (z-score),[24],-0.306
same,glycan array binding signal (z-score),[25],0.129
same,glycan array binding signal (z-score),[26],-0.344
same,glycan array binding signal (z-score),Fuc(a1-4)GlcNAc,-0.141
same,glycan array binding signal (z-score),Fuc(b1-3)GlcNAc,0.143
same,glycan array binding signal (z-score),Gal(a1-2)Gal,1.6
same,glycan array binding signal (z-score),Gal(a1-3)Gal,-0.137
same,glycan array binding signal (z-score),Gal(a1-3)Gal(b1-3)Glc,-0.468
same,glycan array binding signal (z-score),Gal(a1-3)Gal(b1-3)GlcNAc,-0.273
same,glycan array binding signal (z-score),Gal(a1-3)Gal(b1-4)GlcNAc,-0.388
same,glycan array binding signal (z-score),[27],-0.466
same,glycan array binding signal (z-score),Gal(a1-3)GlcNAc,-0.341
same,glycan array binding signal (z-score),[28],0.011
same,glycan array binding signal (z-score),Gal(a1-4)Gal(b1-4)Gal,-0.184
same,glycan array binding signal (z-score),Gal(a1-4)Gal(b1-4)GalNAc,-0.266
same,glycan array binding signal (z-score),Gal(a1-4)GlcNAc,-0.51
same,glycan array binding signal (z-score),Gal(a1-6)Glc,-0.365
same,glycan array binding signal (z-score),Gal(b1-2)Gal,-0.384
same,glycan array binding signal (z-score),Gal(b1-3)Gal,-0.471
same,glycan array binding signal (z-score),Gal(b1-3)GalNAc,0.816
same,glycan array binding signal (z-score),[29],-0.227
same,glycan array binding signal (z-score),[30],-0.21
same,glycan array binding signal (z-score),[31],0.343
same,glycan array binding signal (z-score),[32],0.033
same,glycan array binding signal (z-score),[33],-0.16
same,glycan array binding signal (z-score),[34],-0.213
same,glycan array binding signal (z-score),[35],-0.361
same,glycan array binding signal (z-score),[36],-0.154
same,glycan array binding signal (z-score),[37],-0.202
same,glycan array binding signal (z-score),[38],-0.058
